Laboratory results taken from the supplement of paper PMC4967469.
IC50 is the fitted dose that halves viability relative to control wells, and lower means more sensitive; where the fit passes the top or lowest dose, that dose stands as a limit. AUC sums up the same curve from the lowest dose to the 256-fold higher top dose; values near 1 show little effect. For some of these results: An inferred top dose is not printed in the source and was worked back from the curve model. For some of these results: Where an entry number is given, a second screen of the drug exists; the two often differ.

What was measured:
Experiment in all cases: Viability of human cancer cell lines after 72 h of drug (GDSC screen)
[1] = compound: C[C@]1(c2nc3c(C(N)=O)cccc3[nH]2)CCCN1 [ABT-888]; conditions: top dose 5 µM; top dose inferred
Procedure: (§1)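 Human cancer cell lines in 384-well plates, medium with 10% serum, drug for 72 h over a 256-fold dose range (nine 2-fold or five 4-fold steps up to the top dose). Adherent lines were fixed and stained with the nucleic acid dye Syto60, suspension lines read with resazurin; signal relative to control wells, capped at 0 and 100%. One two-parameter sigmoid per drug and line, fitted in a mixed model over all curves with the slope shared within a line.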

[2] = compound: O=c1cc(-c2cccc3c2Sc2ccccc2S3)oc(N2CCOCC2)c1 [KU-55933]; conditions: top dose 10 µM
Procedure: as §1

[3] = compound: Cc1ccc(F)c(NC(=O)Nc2ccc(-c3cccc4[nH]nc(N)c34)cc2)c1 [ABT-869]; conditions: top dose 1.024 µM; top dose inferred
Procedure: as §1

[4] = compound: COc1cc2ncnc(-n3nc(-c4ccccn4)nc3N)c2cc1OC [CP466722]; conditions: top dose 16 µM; top dose inferred
Procedure: as §1

[5] = compound: Nc1ccn([C@@H]2O[C@H](CO)[C@@H](O)[C@@H]2O)c(=O)n1 [Cytarabine]; conditions: top dose 2 µM
Procedure: as §1

[6] = compound: COc1nc(C)cnc1NS(=O)(=O)c1cccnc1-c1ccc(-c2nnco2)cc1 [Zibotentan]; conditions: top dose 20 µM; top dose inferred
Procedure: as §1

[7] = compound: C=CC(=O)Nc1cc(-n2c(=O)ccc3cnc4ccc(-c5cn[nH]c5)cc4c32)ccc1C [QL-X-138]; conditions: top dose 10.24 µM; top dose inferred
Procedure: as §1

[8] = compound: COc1cc(N2CCC(O)CC2)ccc1Nc1cc(Nc2ccccc2S(=O)(=O)C(C)C)c2cc[nH]c2n1 [MPS-1-IN-1]; conditions: top dose 20 µM; top dose inferred
Procedure: as §1

[9] = compound: C/C=C(/C)C(=O)O[C@H]1C(C)=C2[C@H]([C@@H]1OC(=O)CCCCCCC)[C@@](C)(OC(C)=O)C[C@H](OC(=O)CCC)[C@@]1(O)[C@H]2OC(=O)[C@@]1(C)O [Thapsigargin]; conditions: top dose 0.512 µM; top dose inferred
Procedure: as §1

[10] = compound: COc1cc(O)c2c(c1)/C=C/C[C@H](O)[C@H](O)C(=O)/C=C\C[C@H](C)OC2=O [(5Z)-7-Oxozeaenol]; conditions: top dose 10 µM; top dose inferred
Procedure: as §1

[11] = compound: CCn1c(-c2nonc2N)nc2cnc(Oc3cccc(NC(=O)c4ccc(OCCN5CCOCC5)cc4)c3)cc21 [GSK269962A]; conditions: top dose inferred
Procedure: as §1

[12] = compound: Cc1cnc(-c2cnc(NCCNc3ccc(C#N)cn3)nc2-c2ccc(Cl)cc2Cl)[nH]1 [CHIR-99021]
Procedure: as §1

[13] = compound: Cc1ccc(-c2c(C(=O)CCl)n(CCCO)c3ncnc(N)c23)cc1 [CMK]; conditions: top dose 4 µM; top dose inferred
Procedure: as §1

[14] = top dose 2.5 µM, screen: GDSC drug entry 127
[15] = top dose 5 µM, screen: GDSC drug entry 1192
[16] = top dose 2.56 µM, screen: GDSC drug entry 154
[17] = top dose 10 µM, screen: GDSC drug entry 1241, top dose inferred

Row | Cell Line | AUC [1] | IC50 [1] | AUC [2] | IC50 [2] | AUC [3] | IC50 [3] | AUC [4] | IC50 [4] | AUC [5] | IC50 [5] | AUC [6] | IC50 [6] | AUC [7] | IC50 [7] | AUC [8] | IC50 [8] | AUC [9] | IC50 [9] | AUC [10] | IC50 [10] | AUC [11, 14] | IC50 [11, 14] | AUC [11, 15] | IC50 [11, 15] | AUC [12, 16] | IC50 [12, 16] | AUC [12, 17] | IC50 [12, 17] | AUC [13] | IC50 [13]
1 | A3-KAW (B-cell lymphoma, suspension) | 0.992 | > 5 µM | 0.991 | > 10 µM | 0.989 | > 1.02 µM | 0.575 | 1.54 µM | 0.916 | 1.93 µM | 0.991 | > 20 µM | 0.564 | 0.921 µM | 0.832 | 9.35 µM | 0.151 | 0.00378 µM | 0.626 | 1.28 µM | 0.934 | > 2.5 µM | 0.839 | 2.47 µM | 0.993 | > 2.56 µM | 0.852 | 5.42 µM | 0.852 | 2.17 µM
2 | A4-Fuk (B-cell lymphoma, suspension) | 0.986 | > 5 µM | 0.944 | > 10 µM | 0.985 | > 1.02 µM | 0.827 | 10.3 µM | 0.778 | 0.847 µM | 0.978 | > 20 µM | 0.895 | > 10.2 µM | 0.787 | 9.1 µM | 0.069 | < 0.002 µM | 0.766 | 3.84 µM | 0.972 | > 2.5 µM | 0.921 | > 5 µM | 0.985 | > 2.56 µM | 0.847 | 7.83 µM | 0.849 | 3.19 µM
3 | A101D (melanoma, adherent) | 0.853 | > 5 µM | 0.805 | 6.48 µM | 0.981 | > 1.02 µM | 0.98 | > 16 µM | 0.768 | 0.923 µM | 0.981 | > 20 µM | 0.981 | > 10.2 µM | 0.95 | > 20 µM | 0.258 | 0.00541 µM | 0.407 | 0.326 µM | 0.818 | 1.83 µM | 0.733 | 1.7 µM | 0.95 | > 2.56 µM | 0.802 | 6.28 µM | 0.796 | 2.37 µM
4 | A253 (head and neck, adherent) | 0.989 | > 5 µM | 0.979 | > 10 µM | 0.985 | > 1.02 µM | 0.87 | 14.2 µM | 0.816 | 1.07 µM | 0.988 | > 20 µM | 0.82 | 5.66 µM | 0.986 | > 20 µM | 0.194 | 0.00405 µM | 0.678 | 1.93 µM | 0.989 | > 2.5 µM | 0.988 | > 5 µM | 0.984 | > 2.56 µM | 0.983 | > 10 µM | 0.916 | > 4 µM
5 | A388 (skin, adherent) | 0.981 | > 5 µM | 0.917 | > 10 µM | 0.983 | > 1.02 µM | 0.758 | 6.3 µM | 0.641 | 0.327 µM | 0.982 | > 20 µM | 0.772 | 4.55 µM | 0.945 | > 20 µM | 0.27 | 0.00635 µM | 0.681 | 2.18 µM | 0.967 | > 2.5 µM | 0.973 | > 5 µM | 0.98 | > 2.56 µM | 0.981 | > 10 µM | 0.804 | 2.36 µM
6 | A498 (kidney, adherent) | 0.963 | > 5 µM | 0.963 | > 10 µM | 0.97 | > 1.02 µM | 0.888 | > 16 µM | 0.817 | 1.93 µM | 0.977 | > 20 µM | 0.876 | > 10.2 µM | 0.976 | > 20 µM | 0.909 | > 0.512 µM | 0.469 | 0.495 µM | 0.953 | > 2.5 µM | 0.874 | > 5 µM | 0.827 | > 2.56 µM | 0.911 | > 10 µM | 0.973 | > 4 µM
7 | CHP-126 (neuroblastoma, suspension) | 0.987 | > 5 µM | 0.963 | > 10 µM | 0.976 | > 1.02 µM | – | – | 0.956 | > 2 µM | 0.986 | > 20 µM | 0.804 | 5.26 µM | 0.848 | 15.4 µM | 0.508 | 0.0337 µM | 0.626 | 1.4 µM | 0.966 | > 2.5 µM | 0.986 | > 5 µM | 0.955 | > 2.56 µM | 0.986 | > 10 µM | 0.853 | 3.25 µM
8 | EKVX (lung adenocarcinoma, adherent) | 0.949 | > 5 µM | 0.899 | > 10 µM | 0.962 | > 1.02 µM | 0.938 | > 16 µM | 0.958 | > 2 µM | 0.969 | > 20 µM | 0.863 | > 10.2 µM | 0.917 | > 20 µM | 0.643 | 0.126 µM | 0.767 | 9.69 µM | 0.957 | > 2.5 µM | 0.83 | > 5 µM | – | – | – | – | 0.951 | > 4 µM
9 | GAK (melanoma, adherent) | 0.989 | > 5 µM | 0.98 | > 10 µM | – | – | 0.943 | > 16 µM | 0.898 | > 2 µM | 0.989 | > 20 µM | 0.872 | 8.96 µM | 0.975 | > 20 µM | 0.615 | 0.0653 µM | 0.752 | 3.18 µM | 0.99 | > 2.5 µM | 0.947 | > 5 µM | 0.989 | > 2.56 µM | 0.956 | > 10 µM | 0.942 | > 4 µM
